Measurements taken from the supplement of paper PMC11417369.
± gives the standard deviation of the averaged measurements. Some of the results follow.

Test system: PfAP2-G AP2 domain (GST-tagged)
Assay: gcPBM binding intensity (ln(normalized median fluorescence intensity)); higher = stronger DNA binding
How it was run: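 Binding intensity values are the highest Masliner-normalised natural-log median intensity among replicate spots of either probe orientation. The binding step lasted 1 h in 1× PBS with 1% milk, 0.2 mg/ml BSA, 0.5% salmon testes DNA and 0.03% Triton X-100, using GST-tagged P. falciparum DNA-binding domains expressed in E. coli on an Agilent 4 × 180k array of primer-extended double-stranded 36-bp intergenic genomic probes plus negative controls. Alexa488 anti-GST antibody and a 488 nm scan detected bound protein.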

**Q.** With “CGGAAAAATTAAAGCACACAAAAAAAAATAAAAAAA [CACACA_site1133]” as the sequence, how does the “gcPBM binding intensity (ln)” value read?
**A.** 10 ± 0.22

**Q.** For “AATATTTCTTTAATTTGTACATATAAGGGAAAATAA [XGTACX_site6221]”, which “gcPBM binding intensity (ln)” value is on record?
**A.** 10.9 ± 0.59

**Q.** “AAAAAACATACATACACACACATAAATATTTATATT [CACACA_site7300]” was tested. Which “gcPBM binding intensity (ln)” value did it give?
**A.** 10.03 ± 0.035

**Q.** For “CACAGATAAATTAACACACACACACCGATATATATA [CACACA_site6049]”, which “gcPBM binding intensity (ln)” value is on record?
**A.** 10 ± 0.23

**Q.** With “TTTTTATTATTTTAAAGTACTCTTTAGTAATTCCCT [XGTACX_site5863]” as the sequence, how does the “gcPBM binding intensity (ln)” value read?
**A.** 11.1 ± 0.76

**Q.** “CTTAGGTGTTCATAGAGTACAAATAAAAAAATAAGA [XGTACX_site2294]” was tested. Which “gcPBM binding intensity (ln)” value did it give?
**A.** 11.3 ± 0.95

**Q.** With “ATATATATTTTAATAACACACATATATTATATTATA [CACACA_site4387]” as the sequence, how does the “gcPBM binding intensity (ln)” value read?
**A.** 9.79 ± 0.11

**Q.** “TCATTCTAAATATAAACACACATAAATAAATACATT [CACACA_site5788]” was tested. Which “gcPBM binding intensity (ln)” value did it give?
**A.** 9.905 ± 0.078

**Q.** With “ACGTTACATACATATACACACACATATATATATATA [CACACA_site8203]” as the sequence, how does the “gcPBM binding intensity (ln)” value read?
**A.** 10.2 ± 0.16

**Q.** “TATATATATTATTATGCATGTAATAAAACAAATAAT [TGCATGCA_site625]” was tested. Which “gcPBM binding intensity (ln)” value did it give?
**A.** 9.855 ± 0.007

**Q.** For “GGTGGTGGTGGGTGGGTGCTTCTATTATTATATTAT [GTGCAC_site9391]”, which “gcPBM binding intensity (ln)” value is on record?
**A.** 11.3 ± 0.61

**Q.** With GATGTTTCTATTTTAGTGCATTTTAAATAAATAAAT as the sequence, how does the “gcPBM binding intensity (ln)” value read?
**A.** 10.1 ± 0.26

**Q.** For “ATTTCTTCTTTTTTTGTGAAACTGGAATATATATAT [XGTACX_negctrl_site527]”, which “gcPBM binding intensity (ln)” value is on record?
**A.** 10.1 ± 0.18

**Q.** Which “gcPBM binding intensity (ln)” value does the source give for “ATAAAGAAACATATATGTACTTATATATATATATAT [XGTACX_site5625]” here?
**A.** 11.3 ± 0.95

**Q.** How did the “gcPBM binding intensity (ln)” value turn out when “TTCTATATTATATATGCATGTGTTATTCTTATTTTC [TGCATGCA_site92]” was run?
**A.** 9.87 ± 0.057

**Q.** “ATATAATATTAGTGCACACACAAAAATGTACTAAAC [CACACA_site632]” was tested. Which “gcPBM binding intensity (ln)” value did it give?
**A.** 11.2 ± 0.79

**Q.** Which “gcPBM binding intensity (ln)” value does the source give for “TATTATTTATTATATGCACACATCGAACTATTATTT [CACACA_site2544]” here?
**A.** 10.1 ± 0.18

**Q.** Which “gcPBM binding intensity (ln)” value does the source give for “TATTCGAAAGAATAGGCATGCAAACATATCTTATTA [TGCATGCA_site147]” here?
**A.** 9.86 ± 0.11

**Q.** “ATATATATTATATGCACACTTATATTTCATTAGATT [CACACA_site2599]” was tested. Which “gcPBM binding intensity (ln)” value did it give?
**A.** 9.855 ± 0.007

**Q.** With “TCATCATATTATATATGTACATATATAATAATTTAT [XGTACX_site1625]” as the sequence, how does the “gcPBM binding intensity (ln)” value read?
**A.** 11.2 ± 0.71

**Q.** “AAATAATTAAAAAAAAGTACACATGTGACTACATAT [XGTACX_site8767]” was tested. Which “gcPBM binding intensity (ln)” value did it give?
**A.** 11.4 ± 0.71

**Q.** For “ATTGTATCTGTATATGCACACAATATCTGTACTTCT [CACACA_site5445]”, which “gcPBM binding intensity (ln)” value is on record?
**A.** 11.3 ± 0.89

**Q.** How did the “gcPBM binding intensity (ln)” value turn out when “AAATAAAGCACACCGACACACACATATATATATATA [CACACA_site8256]” was run?
**A.** 10.2 ± 0.18

**Q.** Which “gcPBM binding intensity (ln)” value does the source give for “TATATATATGTATACACACATACAAATATGTAAAAA [CACACA_site3720]” here?
**A.** 10 ± 0.12

**Q.** “TTTCAATACTGAAACTGTACTTGTTTTACTTCTATT [XGTACX_site5924]” was tested. Which “gcPBM binding intensity (ln)” value did it give?
**A.** 11.5 ± 1.1

**Q.** With “CGAAATCATATGTACACACACATATATATATATATA [CACACA_site2151]” as the sequence, how does the “gcPBM binding intensity (ln)” value read?
**A.** 11.5 ± 1.1

**Q.** With “TTATAATTTTTTTTTGCATGTGGGTTTTTTTTTGTT [TGCATGCA_site968]” as the sequence, how does the “gcPBM binding intensity (ln)” value read?
**A.** 9.94 ± 0.15

**Q.** “TTTTTTCTCTATATATGTACATATAAAAAATATATC [XGTACX_site6382]” was tested. Which “gcPBM binding intensity (ln)” value did it give?
**A.** 11.3 ± 0.81

**Q.** How did the “gcPBM binding intensity (ln)” value turn out when “GTTACACAAACAAACACACACACACGCACGCACAAA [CACACA_site7191]” was run?
**A.** 10.3 ± 0.22

**Q.** How did the “gcPBM binding intensity (ln)” value turn out when “ATGAGTATACTAAGAACACACAAGTTACTTGGTGTT [CACACA_site4981]” was run?
**A.** 9.9 ± 0.14

**Q.** How did the “gcPBM binding intensity (ln)” value turn out when “TAAAAAAAAAAAATGTGTACATATTATATATATCTT [XGTACX_site2615]” was run?
**A.** 11.5 ± 0.76

**Q.** “TATAACAAGTAATGTTGTACATTATATTATGTAATA [XGTACX_site2769]” was tested. Which “gcPBM binding intensity (ln)” value did it give?
**A.** 11.1 ± 0.84

**Q.** For “TTTTTTATTATTATGTGTACGAATATGTGCATATAA [XGTACX_site1364]”, which “gcPBM binding intensity (ln)” value is on record?
**A.** 11.1 ± 0.69

**Q.** How did the “gcPBM binding intensity (ln)” value turn out when “CATATTATTTAAACATGTACTCACATATAAATATAA [XGTACX_site6096]” was run?
**A.** 11.4 ± 0.98

**Q.** How did the “gcPBM binding intensity (ln)” value turn out when “ATTTTATAATTTATATCACACACATATATATATAGT [CACACA_site7885]” was run?
**A.** 10.2 ± 0.18

**Q.** How did the “gcPBM binding intensity (ln)” value turn out when “TGTTTATAAATATAAAAAAATATATATATATATTAT [GTGCAC_negctrl_site247]” was run?
**A.** 9.47 ± 0.11

**Q.** With “GGTTACATTTTATTTTGTACATAAAAATTTTTATTT [XGTACX_site218]” as the sequence, how does the “gcPBM binding intensity (ln)” value read?
**A.** 11.1 ± 0.53

**Q.** For GTATTATATATAAAAGTGCATATTTTTTTCCCTTAC, which “gcPBM binding intensity (ln)” value is on record?
**A.** 10.2 ± 0.18

**Q.** For “CAAAATTAATAAGTCACACACACATCTATAATATAT [CACACA_site6519]”, which “gcPBM binding intensity (ln)” value is on record?
**A.** 10.1

**Q.** With “TTCTTTATTTTTTCTACACACATTAGATATTCAAAG [CACACA_site7624]” as the sequence, how does the “gcPBM binding intensity (ln)” value read?
**A.** 10.1 ± 0.13

**Q.** For “ACCATAACATGAATTACAGGAATTGAAAATGTTCCA [CACACA_negctrl_site649]”, which “gcPBM binding intensity (ln)” value is on record?
**A.** 9.96 ± 0.3

**Q.** Which “gcPBM binding intensity (ln)” value does the source give for “TATATATATATATTCACACATAAGATGAATAAAGTG [CACACA_site4225]” here?
**A.** 10.3 ± 0.38

**Q.** Which “gcPBM binding intensity (ln)” value does the source give for “AAAAAAAAAATACATACACACACACCCACCCATATA [CACACA_site9187]” here?
**A.** 10.5 ± 0.22

**Q.** For “TGTCCCCCTTTCTATGCACACTTTAAATTATTCAAA [CACACA_site4200]”, which “gcPBM binding intensity (ln)” value is on record?
**A.** 11.4 ± 0.86

**Q.** With “TATTAAAAGTAAAAAACACACATGGATAAATACATA [CACACA_site6048]” as the sequence, how does the “gcPBM binding intensity (ln)” value read?
**A.** 10.03 ± 0.092
